Test results as given in PubChem BioAssay AID588342 (National Center for Advancing Translational Sciences (NCATS), 2011).
About 25,000 (6.9%) of roughly 360,000 compounds were called active. This list was built around the results that the source calls inconclusive (neither active nor inactive); the mix of calls is not that of the screen. Calls come from the whole dose curve; as a rule, active = well fitted inhibition curve with a large enough effect; inconclusive = small, poorly fitted or top-dose-only effect; inactive = flat fitted curve, though single readings scatter. A potency beside an inconclusive call is a rough fit, not a confirmed value.

Each compound was assayed against Luciferin 4-monooxygenase (Photinus pyralis) (UniProt P08659) (assay: qHTS profiling assay for firefly luciferase inhibitor/activator using purifed enzyme and Km concentrations of substrates (counterscreen for miR-21 project)). Conditions: purified FLuc, luminescence inhibition; series mostly up to 57.5 µM; activity change, negative = inhibition: at the top concentration.
In short: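 Purified P. pyralis luciferase, 10 nM final, with Km-level 10 uM D-luciferin and 10 uM ATP in 50 mM Tris acetate pH 7.5, 10 mM Mg acetate, 0.01% Tween-20, 0.05% BSA; 6-point qHTS titration about 60 µM downward; luminescence read.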
Note: nearly all actives have a fitted effect of over 55% in size.
Potency is the fitted concentration of half-maximal effect; tags give direction and shape of the fitted curve.
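Throughout, for activity change, negative = inhibition: plate controls were vehicle for no effect and reference inhibitor for full effect.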

Chain of UniProt P08659 (P08659 whole entry, looked up): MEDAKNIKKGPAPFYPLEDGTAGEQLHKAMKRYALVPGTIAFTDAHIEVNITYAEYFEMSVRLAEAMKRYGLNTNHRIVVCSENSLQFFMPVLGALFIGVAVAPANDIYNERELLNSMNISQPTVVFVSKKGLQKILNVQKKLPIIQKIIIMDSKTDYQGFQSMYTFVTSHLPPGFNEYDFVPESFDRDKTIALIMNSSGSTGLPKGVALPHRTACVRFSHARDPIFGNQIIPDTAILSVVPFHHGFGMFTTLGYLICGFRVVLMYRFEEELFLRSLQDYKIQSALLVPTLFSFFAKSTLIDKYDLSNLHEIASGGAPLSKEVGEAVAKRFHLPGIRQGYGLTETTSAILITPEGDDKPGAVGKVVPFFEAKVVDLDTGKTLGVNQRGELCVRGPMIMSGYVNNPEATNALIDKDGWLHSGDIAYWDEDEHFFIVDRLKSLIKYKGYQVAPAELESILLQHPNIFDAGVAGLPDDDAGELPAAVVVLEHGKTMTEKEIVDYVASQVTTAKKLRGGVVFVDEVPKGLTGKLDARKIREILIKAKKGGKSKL

| Compound | activity change, negative = inhibition | Potency |
| --- | --- | --- |
| CCc1ccc(N2CC(c3nc4ccccc4n3Cc3ccccc3C)CC2=O)cc1 (stereo not drawn) | inactive: -8.21% | – |
| Cc1cc(=O)n(-c2ccc3ccccc3n2)[nH]1 | – | inconclusive: 16.9 µM [inhibitor, partial curve] |
| O=C(OCC(=O)c1c[nH]c2ccccc12)c1cccc(S(=O)(=O)N2CCCCCC2)c1 | – | inconclusive: 23.9 µM [inhibitor, partial curve, poor fit] |
| CC(C)(C)NC(=O)NC(=O)CN1c2cccc3cccc(c23)S1(=O)=O | inactive: -0.878% | – |
| Cc1ccc(NC(=O)CCCc2ccccc2)nc1 | – | active: 16.9 µM |
| CCOc1ccccc1C(=O)Nc1ccc(-n2nncc2C(C)(C)C)cc1 | inactive: 2.88% | – |
| NC(=O)C1CCN(c2ncnc3c2cnn3-c2cccc(Cl)c2)CC1 | – | inconclusive: 12 µM [inhibitor, partial curve] |
| CCc1ccccc1NS(=O)(=O)c1ccc2[nH]cc(C(=O)NC3CCCC3)c(=O)c2c1 | – | inconclusive: 16.9 µM [inhibitor, partial curve, poor fit] |
| O=C(Nc1ccc2sccc2c1)c1cccc(N2C(=O)CCC2=O)c1 | – | active: 8.49 µM |
| O=C(c1cc(Cl)ccc1F)N1CCCC(Nc2ccc3c(c2)OCCO3)C1 (stereo not drawn) | inactive: -0.381% | – |
| CCc1ccc(Nc2ncc3c(n2)CC(C)CC3=O)cc1 (stereo not drawn) | – | inconclusive: 2.69 µM [inhibitor, full curve] |
| CCOc1ccc2nc(SCC(=O)NC(=O)C(C)C)sc2c1 | – | inconclusive: 37.9 µM [inhibitor, single point] |
| Cc1cc(C)cc(NC(=O)c2ccc(CSc3nnnn3C)cc2)c1 | – | active: 13.5 µM |
| C/C(=N/NC(=O)c1ccccn1)c1ccncc1 | – | active: 16.9 µM |
| CC(Oc1ccccc1)C(=O)NNC(=O)c1cccs1 (stereo not drawn) | – | inconclusive: 0.0095 µM [inhibitor, partial curve, poor fit] |
| CCOC(=O)c1cnc2ccc(OC(F)(F)F)cc2c1Nc1ccccc1C(=O)O | – | inconclusive: 15.1 µM [inhibitor, partial curve] |
| COc1ccc(-c2nsc(SCC(=O)Nc3cc(C)on3)n2)cc1 | inactive: 2.3% | – |
| COc1cccc(CNC(=O)CCCc2c[nH]c3ccccc23)c1 | inactive: 1.29% | – |
| COC(=O)c1cc(-c2cccs2)[nH]n1 | inactive: -11.8% | – |
| Nc1nc(SCc2ccc(F)cc2)ns1 | – | inconclusive: 26.9 µM [inhibitor, single point] |
| Cc1ccc(-n2nc3ccc(NC(=O)c4cccc([N+](=O)[O-])c4C)cc3n2)cc1 | – | inconclusive: 26.9 µM [inhibitor, partial curve, poor fit] |
| O=C(/C=C/c1cccs1)Nc1scc(-c2ccccc2)c1C(=O)O | – | active: 3.79 µM |
| CC[C@@]1(c2ccccc2OC)C(=O)N(C(=O)OC)N1C(=O)OC | inactive: -2.49% | – |
| CN(C)c1ccc(C2C3C(=O)NC(=O)C3ON2c2ccc(Cl)cc2)cc1 (stereo not drawn) | – | inconclusive: 26.9 µM [inhibitor, single point] |
| Cc1ccc2c(CSc3nc4ccccc4c(=O)n3CCCO)cc(=O)oc2c1C | – | inconclusive: 19 µM [inhibitor, partial curve, poor fit] |

| Compound | activity change, negative = inhibition | Potency |
| --- | --- | --- |
| O=c1c2ccccc2oc2cc(-c3ccc(CN4CCOCC4)cc3)ccc12 | – | active: 6.75 µM |
| COc1ccc(NC(=O)CN(C)C(=O)/C=C/c2ccc(OCc3ccccc3)cc2)cc1 | inactive: -3.08% | – |
| O=C(c1cccc(-n2cnnn2)c1)N1CC=C(c2ccccc2)CC1 | inactive: 2.09% | – |
| O=C(COc1ccc2ccc(=O)oc2c1)N1CCc2ccccc21 | – | inconclusive: 37.9 µM [inhibitor, partial curve, poor fit] |
| O=c1[nH]nc(CSCc2ccccc2Cl)[nH]1 | inactive: 2.07% | – |
| CCOc1ccc2[nH]c3c(NCCCOC)ncnc3c2c1 | – | inconclusive: 21.3 µM [inhibitor, partial curve] |
| C=C1c2cc(CC)ccc2NC(=O)N1c1ccc(C)cc1 | – | inconclusive: 30.1 µM [inhibitor, partial curve, poor fit] |
| C/C(=N/NC(=O)c1cc(O)c(O)c(O)c1)c1ccc([N+](=O)[O-])cc1 | – | inconclusive: 37.9 µM [inhibitor, partial curve, poor fit] |
| CC1CCCN(Cc2c(O)ccc3c(=O)c(-c4ccccc4Cl)c(C(F)(F)F)oc23)C1 (stereo not drawn) | inactive: -0.244% | – |
| CC(C)Oc1ccc(Br)cc1C(=O)N/N=C/c1c[nH]c2ccccc12 | inactive: -21% | – |
| Nc1c(C(=O)Nc2ccc3c(c2)OCCO3)nnn1Cc1ccccc1 | – | inconclusive: 3.01 µM [inhibitor, partial curve] |
| CCC(=O)c1ccc(OCC(=O)Nc2cc(S(=O)(=O)N3CCCCC3)ccc2N2CCN(CC)CC2)cc1 | inactive: -4.87% | – |
| CC(=C/c1ccccc1)/C=C1/SC(N2CCOCC2)=NC1=O | – | active: 15.1 µM |
| Nc1c2c(nc3ccn(Cc4ccccc4)c(=O)c13)CCC2 | – | inconclusive: 19 µM [inhibitor, partial curve, poor fit] |
| Cc1nc(COC(=O)c2c(C)nn(-c3ccccc3)c2C)cs1 | – | inconclusive: 26.9 µM [inhibitor, single point] |
| Cc1nn(C(C)C(=O)Nc2cccc(F)c2)c(=O)c2c1sc1ccccc12 (stereo not drawn) | – | inconclusive: 8.49 µM [inhibitor, partial curve] |
| CCCCSc1ccc2nc(-c3ccc(C#N)cc3)cn2c1 | – | active: 4.78 µM |
| Cc1cccc2nc(-c3ccco3)c(Nc3ccccc3)n12 | – | inconclusive: 21.3 µM [inhibitor, partial curve, poor fit] |
| O=C(Nc1ccc(F)c(Cl)c1)c1nsc(Cl)c1Cl | – | active: 2.39 µM |
| Nc1c(C(=O)O)sc2nc(-c3ccccc3)c3c(c12)CCCC3 | inactive: -0.959% | – |
| Cc1ccc(N(C(=O)C(F)(F)F)C(C(=O)NC2CCCCC2)c2cccs2)cc1 (stereo not drawn) | inactive: -0.536% | – |
| CCOC(=O)c1ccc(-c2ccc(CO)o2)cc1 | – | active: 10.7 µM |
| CCOC(=O)CC(=O)c1[nH]c(C)c(C(=O)OCC)c1C | – | inconclusive: 37.9 µM [inhibitor, partial curve, poor fit] |
| COc1ccc(NC(=O)c2ccccc2NC(=O)NC2CCCCC2)cc1 | – | active: 5.36 µM |
| Cc1cc(NC(=O)c2ccc(Br)o2)ccc1NC(=O)c1ccco1 | – | inconclusive: 19 µM [inhibitor, single point] |

| Compound | activity change, negative = inhibition | Potency |
| --- | --- | --- |
| O=C(C1=C(O)/C(=C/c2ccc(O)cc2)CCC1)C(F)(F)F | – | inconclusive: 37.9 µM [inhibitor, single point] |
| CS(=O)(=O)Nc1ccc(C(=O)Nc2ccc3c(c2)OCO3)cc1 | – | inconclusive: 26.9 µM [inhibitor, partial curve] |
| Cc1onc(-c2ccccc2Cl)c1C(=O)N1CCN(C(=O)c2ccco2)CC1 | inactive: 3.9% | – |
| COc1ccc(CNC(=O)c2ccc3c(c2)N(C)CCS3)cc1 | – | inconclusive: 37.9 µM [inhibitor, partial curve, poor fit] |
| CCOC(=O)c1sc(=NC(=O)c2ccc(C)cc2)n(C)c1C | – | inconclusive: 3.38 µM [inhibitor, full curve] |
| O=C(Nc1ccc2nc3n(c(=O)c2c1)CCCCC3)c1ccccc1Cl | – | inconclusive: 30.1 µM [inhibitor, partial curve, poor fit] |
| CCc1cccc(NC(=O)CSc2nccn2C)c1 | – | inconclusive: 37.9 µM [inhibitor, single point] |
| CC(=O)Cc1nsc(NC(=O)c2ccc(-c3ccc(F)cc3)o2)n1 | – | active: 6.01 µM |
| COc1cc(/C=N/NC(=O)c2ccc3nc[nH]c3c2)ccc1O | – | inconclusive: 21.3 µM [inhibitor, partial curve, poor fit] |
| CCOC(=O)c1cc(S(=O)(=O)Nc2cc(C)c(Cl)cc2OC)[nH]n1 | – | inconclusive: 37.9 µM [inhibitor, partial curve, poor fit] |
| O=C(Nc1nccs1)c1cc(Cl)ccc1[N+](=O)[O-] | inactive: 2.47% | – |
| Cc1cc(SCC(=O)c2cccs2)nc2ccccc12 | – | inconclusive: 23.9 µM [inhibitor, partial curve, poor fit] |
| NNc1nc2ccccc2c(=O)n1Cc1ccccc1 | – | inconclusive: 26.9 µM [inhibitor, single point] |
| O=C(N/N=C/c1ccccc1OC(F)F)c1cc(-c2ccncc2)nc2ccccc12 | – | inconclusive: 21.3 µM [inhibitor, partial curve, poor fit] |
| COc1ccc(C(=O)N/C(=C\c2ccc3c(c2)OCO3)C(=O)Nc2cccc(C(=O)O)c2)cc1 | – | inconclusive: 37.9 µM [inhibitor, single point] |
| CCc1nc(SCc2nc3ccccc3[nH]2)c2oc3ccccc3c2n1 | – | inconclusive: 21.3 µM [inhibitor, single point] |
| CC(C)CCNC(=O)c1ccc(Cl)c(N)c1 | – | inconclusive: 23.9 µM [inhibitor, single point] |
| Cc1ccc(-n2c(=S)[nH]c3c(oc4ccccc43)c2=O)cc1C | – | inconclusive: 19 µM [inhibitor, partial curve, poor fit] |
| CCOCCn1c(=NC(=O)c2ccc3c(c2)OCCO3)sc2cc(OCC)ccc21 | – | inconclusive: 30.1 µM [inhibitor, partial curve, poor fit] |
| COc1ccc(-c2coc3cc(OC)cc(O)c3c2=O)cc1 | – | active: 1.51 µM |
| COC(=O)c1ccc(OCc2cc(=O)n3ccsc3n2)cc1 | – | inconclusive: 19 µM [inhibitor, partial curve] |
| O=C(O)c1ccc(Oc2ccc(C(F)(F)F)cn2)cc1 | – | inconclusive: 37.9 µM [inhibitor, partial curve, poor fit] |
| O=C(c1cc(-c2ccc(O)cc2)on1)N1CCOCC1 | – | active: 9.53 µM |
